# Assay results taken from PubChem BioAssay AID588453 (National Center for Advancing Translational Sciences (NCATS), 2011).
# Among all 390,000 compounds or so, about 4,000 (1%) were called active. The shares of active, inactive and inconclusive entries below differ from those in the screen. The call rests on the fitted dose curve; in most records, active means well fitted inhibition curve with a large enough effect; inconclusive means small, poorly fitted or top-dose-only effect; inactive means no such curve, though single readings can be large or run the other way. Potencies beside an inconclusive call are fits to weak or partial responses and may not hold up.
# Molecular target: Thioredoxin reductase 1, cytoplasmic (Rattus norvegicus) (UniProt O89049)
# Sequence of UniProt O89049 (O89049 whole entry, looked up): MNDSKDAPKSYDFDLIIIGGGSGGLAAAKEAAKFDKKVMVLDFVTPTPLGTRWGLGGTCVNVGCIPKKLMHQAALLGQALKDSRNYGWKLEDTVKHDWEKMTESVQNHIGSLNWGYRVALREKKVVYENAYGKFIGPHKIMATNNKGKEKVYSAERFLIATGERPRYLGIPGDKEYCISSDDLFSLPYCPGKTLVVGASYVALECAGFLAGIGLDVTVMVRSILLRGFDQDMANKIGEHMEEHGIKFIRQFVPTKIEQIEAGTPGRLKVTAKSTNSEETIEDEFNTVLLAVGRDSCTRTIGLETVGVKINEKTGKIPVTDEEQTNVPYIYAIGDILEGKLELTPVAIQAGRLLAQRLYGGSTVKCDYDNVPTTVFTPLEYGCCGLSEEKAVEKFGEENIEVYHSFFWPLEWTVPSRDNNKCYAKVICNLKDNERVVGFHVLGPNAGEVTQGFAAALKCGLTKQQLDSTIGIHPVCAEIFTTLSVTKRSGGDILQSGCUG
# Experiment: qHTS Assay for Inhibitors of Mammalian Selenoprotein Thioredoxin Reductase 1 (TrxR1): qHTS; further: nearly all actives have a fitted effect of over 65% in size
# Details: recombinant rTrxR1, NADPH fluorescence consumption, selenite substrate; series mostly up to 114 µM; activity change, negative = inhibition: at the top concentration
# Outline: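 Rat TrxR1 (90 nM in the dispensed reagent) was pre-reduced with 400 uM NADPH for 5 min at room temperature, then incubated with compound for 15 min. After 400 uM selenite was added, NADPH fluorescence (Ex 340/Em 450 nm) was followed for 8 min.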
# On the % scale 0 is the no-effect control and ±100 the full control effect; potency means the concentration at half of the fitted maximal effect; tags describe the fitted curve by direction and shape.
SMILES,Potency,"activity change, negative = inhibition"
CCc1ccc(/C=C2/SC(=S)NC2=O)cc1,"inconclusive: 37.7 µM [inhibitor, single point]",–
CC(=O)Nc1ccc(S(=O)(=O)N2CCC(C(=O)NCCc3ccc(Cl)cc3)CC2)cc1,–,inactive: -1.18% [at 57.1 µM]
CC1=C(n2nnc3ccccc32)C(c2ccccc2)C(C#N)=C(N)O1 (stereo not given),"inconclusive: 50.1 µM [inhibitor, partial curve, poor fit]",–
COC(=O)C(CC(=O)c1ccc(C)cc1)n1nc(C)cc1C (stereo not given),"inconclusive: 20 µM [inhibitor, partial curve, poor fit]",–
CCC(=O)NC(=S)NNC(=O)c1ccc(NC(=O)c2ccccc2)cc1,"inconclusive: 89.1 µM [inhibitor, single point]",–
CCOc1ccc(C(NC(=O)/C=C/c2ccco2)c2ccc(OC)c(OC)c2)cc1 (stereo not given),active: 35.5 µM,–
Cc1ccccc1C(=O)NNc1ncnc2c1cnn2C,–,inactive: 10.5% [at 57.1 µM]
CSc1nc(O)c(C(c2ccccc2Cl)c2c(O)nc(SC)[nH]c2=O)c(=O)[nH]1,"inconclusive: 20 µM [inhibitor, full curve]",–
Cc1ccc(O)c(C2=Nc3ccccc3N=C(c3ccco3)C2)c1,–,inactive: 9.5%
CCC1=NN2C(=N)/C(=C\c3cccn3-c3ccc(C)c(C)c3)C(=O)N=C2S1,"inconclusive: 89.1 µM [inhibitor, partial curve, poor fit]",–
Cc1nc2c(C#N)c(-c3ccc(Cl)cc3)ccn2n1,"inconclusive: 79.4 µM [inhibitor, partial curve, poor fit]",–
ClCc1nnc(-c2ccccc2)o1,"inconclusive: 25.1 µM [inhibitor, full curve]",–
O=C(NCc1cccc(Br)c1)C1CC(c2cc(C(F)(F)F)cc(C(F)(F)F)c2)=NO1 (stereo not given),–,inactive: 3.07%
CC(C)c1ccc(C2c3c(-c4ccccc4O)n[nH]c3C(=O)N2CCc2ccccc2)cc1 (stereo not given),–,inactive: 16.6%
COc1ccc(CN2CCN(C(=O)C3CCN(S(=O)(=O)c4cccs4)CC3)CC2)c(OC)c1OC,–,inactive: -7.37%
COCCCNC(=O)/C(C#N)=C/c1cccc(NC(=O)c2ccccc2Cl)c1,"inconclusive: 50.1 µM [inhibitor, single point]",–
C=C1CC(COc2cc(=O)oc3ccccc23)(c2ccccc2)OC1=O (stereo not given),active: 31.6 µM,–
CCSc1ccc(-c2ccco2)nn1,"inconclusive: 25.1 µM [inhibitor, single point]",–
O=C(CNc1cccc2ccccc12)N/N=C/c1ccc([N+](=O)[O-])o1,"inconclusive: 79.4 µM [inhibitor, partial curve, poor fit]",–
Cc1ccc(CN(C)C(=O)c2ccc(S(=O)(=O)N(C)c3ccccc3)cc2)o1,"inconclusive: 14.1 µM [inhibitor, partial curve, poor fit]",–
